What all share (experiment): Primary Screen for Target Class Profiling of Small Molecule Inhibitors of Methyltransferases
Test [1] addresses Glycine N-methyltransferase (Homo sapiens) (UniProt Q14749). The settings on record: purified enzyme, MTase-Glo SAH luminescence; measured here: GNMT inhibition; at 40 µM; stronger effect = lower value. A digest of the protocol:
(§1)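 Each enzyme was assayed with SAM and its substrate. SAH formation detected by MTase-Glo luminescence; single-point 40 uM screen[…].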

For test [2], the target named is Guanidinoacetate N-methyltransferase (Homo sapiens) (UniProt Q14353). The settings on record: purified enzyme, MTase-Glo SAH luminescence; measured here: GAMT inhibition; at 40 µM; stronger effect = lower value. A digest of the protocol: as §1
Test [3] deals with Histamine N-methyltransferase (Homo sapiens) (UniProt P50135). Conditions: purified enzyme, MTase-Glo SAH luminescence; measured here: HNMT inhibition; at 40 µM; stronger effect = lower value. A digest of the protocol: as §1
For test [4], the target named is Nicotinamide N-methyltransferase (Homo sapiens) (UniProt P40261). Conditions: purified enzyme, MTase-Glo SAH luminescence; measured here: NNMT inhibition; at 40 µM; stronger effect = lower value. The procedure, abridged: as §1
Test [5] addresses Phenylethanolamine N-methyltransferase (Homo sapiens) (UniProt P11086). Conditions: purified enzyme, MTase-Glo SAH luminescence; measured here: PNMT inhibition; at 40 µM; stronger effect = lower value. A digest of the protocol:
as §1

This is one part of the list. The main result of the screen is listed elsewhere. These columns were measured beside it and carry no call.
% is scaled to controls: 0 for no effect and ±100 for the full control effect.

For the molecule `COc1ccc(C)cc1NC(=O)N1CCn2cccc2C1Cc1ccccc1` (stereo not given), the activity change, negative = inhibition was found to be 10.1% in test [1]; 0% in test [2]; 9.81% in test [3]; 4.81% in test [4]; 3.87% in test [5].
With `CCNC(=O)N1CC[C@H]2CC(=O)N(CCc3cccc(OC)c3OC)CC[C@H]2C1`, the activity change, negative = inhibition in test [1] was -1.24%; in test [2], 0.424%; in test [3] it was 2.09%; in test [4], 0.526%; in test [5], -1.75%.
Take `CN(C)c1ccc(CN2C(=O)c3nc4ccccc4n3CC2(C)C(=O)NCc2ccccc2)cc1` (stereo not given): the activity change, negative = inhibition in test [1] was 2.28%; in test [2], 0.926%; in test [3] it was 1.98%; in test [4], 3.64%; in test [5], 0.75%.
With `CN(C)c1nc2c(c(=O)[nH]1)CCN(Cc1ccsc1)CC2`, the activity change, negative = inhibition in test [1] is -2.62%; in test [2] it was -2.4%; in test [3], 0.746%; in test [4] it was -0.446%; in test [5], 15.1%.
Take `O=C(CC1CCOC2(CCN(Cc3cccs3)CC2)C1)NC1CC1` (stereo not given): the activity change, negative = inhibition in test [1] is -2.53%; in test [2], 2.94%; in test [3] it was 2.17%; in test [4], -2.36%; in test [5], -9.96%.
For the molecule `CN(C)C[C@@H]1CN(c2ccccn2)C[C@H]1NC(=O)NC(C)(C)C`, the activity change, negative = inhibition in test [1] is -0.623%; in test [2], -3.04%; in test [3], 1.07%; in test [4], -2.56%; in test [5], 0.151%.
Take `CCCn1c(=O)c2ccc(C(=O)NC3CCCC3)cc2n2c(SCC(=O)NC3CCCC3)nnc12`: the activity change, negative = inhibition in test [1] came to 1.54%; in test [2], 4.39%; in test [3] it was 2.62%; in test [4], 2.91%; in test [5], 2.02%.
For `CCNC(=O)[C@@H]1C[C@H](n2cc(CN(C)C(=O)NC3CCCCC3)nn2)CN1`, the activity change, negative = inhibition is -7.92% in test [1]; -10.5% in test [2]; -4.57% in test [3]; -15.8% in test [4]; -11.8% in test [5].
As for `CC(C)S(=O)(=O)NC[C@@H]1CC(c2ccc(N3CCCC3)c(F)c2)=NO1`, the activity change, negative = inhibition in test [1] was -5.02%; in test [2], 4.23%; in test [3] it was -11.2%; in test [4] it was -12.1%; in test [5], -6.86%.
For the molecule `COc1nccnc1NC1CCN(C(=O)NC2CCCC2)CC1`, the activity change, negative = inhibition in test [1] was -1.02%; in test [2], 2.18%; in test [3], 1.85%; in test [4] it was -5.37%; in test [5], 14.5%.
In the case of `COc1ccc(CN2CCN(C(c3ccc(F)cc3)c3ccc(F)cc3)CC2)c(OC)c1OC`, the activity change, negative = inhibition in test [1] was 1.18%; in test [2] it was -9.64%; in test [3] it was 5.85%; in test [4] it was -22.8%; in test [5] it was -4.02%.
The corresponding values for `O=C(CCCn1nc(-c2ccccc2)c2cc(Cl)ccc21)N1CCN(c2ccccn2)CC1` are -2.78%, 0.821%, 8.82%, -7.89% and 2.7%.
Consider `Clc1ccc2c(c1)C1=NCCN1c1c(-c3noc(C4CC4)n3)ncn1-2`, for which the activity change, negative = inhibition is -13% in test [1]; -3.8% in test [2]; 5.24% in test [3]; -23.9% in test [4]; -2.4% in test [5].
Turning to `COCCCn1c(C)cc(C(=O)N2CCCC(c3[nH]ccc3C(N)=O)C2)c1C` (stereo not given), the activity change, negative = inhibition in test [1] was -7.73%; in test [2] it was -2.85%; in test [3] it was -1.47%; in test [4], 0.734%; in test [5], -7.54%.
Regarding `CN(C)CC(O)c1cc2n(n1)CCN(C(=O)c1cc(=O)[nH]c(=O)[nH]1)C2` (stereo not given), the activity change, negative = inhibition in test [1] was -4.89%; in test [2], -10.5%; in test [3], -3.67%; in test [4], -14.1%; in test [5], -10.4%.
On to `Cc1ccc(C)c(Nc2nn3c(=O)c4ccc(C(=O)NC5CCCCC5C)cc4nc3s2)c1` (stereo not given), for which the activity change, negative = inhibition in test [1] was 1.27%; in test [2], 0%; in test [3] it was -2.87%; in test [4] it was -2.38%; in test [5], -2.02%.
As to `CC1(C(=O)NC2CCCCCCC2)Cn2c(cc3occc32)C(=O)N1CCN1CCOCC1` (stereo not given), the activity change, negative = inhibition in test [1] was 5.51%; in test [2] it was -0.067%; in test [3], 3.59%; in test [4], 5.77%; in test [5] it was -0.055%.
Regarding `Cc1ccc(Cn2c(=O)c3ccc(C(=O)NCC(C)C)cc3n3c(=O)n(Cc4ccccc4)nc23)cc1`, the activity change, negative = inhibition in test [1] was 10.3%; in test [2], 2.33%; in test [3], 12.4%; in test [4], 9.42%; in test [5] it was 9.38%.
For `FC(F)(F)c1ccc(CN2CCCC3(CC(c4ccccn4)=NO3)C2)cc1` (stereo not given), the activity change, negative = inhibition in test [1] is -2.85%; in test [2], 0.322%; in test [3] it was 0.448%; in test [4] it was -11.9%; in test [5] it was 7.04%.
For the molecule `COc1ccc(C(=O)N2CCn3nc(C(O)CS(C)(=O)=O)cc3C2)cn1` (stereo not given), the activity change, negative = inhibition in test [1] is -4.99%; in test [2], -12.4%; in test [3], -4.8%; in test [4], -16.3%; in test [5], -12.3%.
As for `O[C@@H]1CO[C@H]2[C@@H]1OC[C@@H]2n1nnnc1Sc1ncccn1`, the activity change, negative = inhibition in test [1] was -1.29%; in test [2] it was 2.82%; in test [3], 2.32%; in test [4], 1.57%; in test [5], 3.32%.
Consider `CCC(C)C(=O)O[C@H]1C[C@](C)(O)[C@]23OC(C)(C)[C@H](C[C@H](OC(=O)c4ccccc4)[C@]2(COC(C)=O)[C@H]1OC(=O)C(C)CC)[C@H]3OC(C)=O` (stereo not given in full), for which the activity change, negative = inhibition was 0% in test [1]; 8.8% in test [2]; 12.4% in test [3]; -6.06% in test [4]; 2.72% in test [5].
The like results for `Cc1ccc(N2C(=O)c3cc4sccc4n3CC2(C)C(=O)NC2CCCCC2)c(C)c1` (stereo not given) were, in that order, 2.02%, 5.23%, 2.46%, 8.64% and 0.524%.
Regarding `CC1CCCCC1NC(=O)C1c2cccn2CC(=O)N1c1ccc(Cc2ccncc2)cc1` (stereo not given), the activity change, negative = inhibition in test [1] came to 1.16%; in test [2], 0.87%; in test [3], 7.08%; in test [4], 5.53%; in test [5], 2.89%.
In the case of `O=C(O)C[C@@H]1CCN(C(=O)c2ccc(F)cc2)C[C@@H]1CCN1CCN(c2ccc(F)cc2)CC1`, the activity change, negative = inhibition in test [1] was -6%; in test [2] it was -3.82%; in test [3], -1.01%; in test [4], -6.44%; in test [5], -17%.
For the molecule `COC(=O)c1ncn2c1C(=O)N(Cc1ccc(N(C)C)cc1)C(C)(C(=O)NC1CCCCC1)C2` (stereo not given), the activity change, negative = inhibition is 3.21% in test [1]; 0% in test [2]; 7.75% in test [3]; 15% in test [4]; 4.14% in test [5].
In the case of `CC1(C(=O)NC2CCCCCCC2)Cn2c(cc3sccc32)C(=O)N1c1ccc(Cl)cc1` (stereo not given), the activity change, negative = inhibition in test [1] is 0.26%; in test [2], 3.31%; in test [3] it was 7.49%; in test [4] it was 4.45%; in test [5], -1.47%.
`CCOc1ccc(CCN2C(=O)c3cc(C(=O)OC)nn3CC2(C)C(=O)NC2CCCC2)cc1` (stereo not given): the activity change, negative = inhibition came to 5.55% in test [1]; 0.524% in test [2]; 11.5% in test [3]; 12.9% in test [4]; 5.1% in test [5].
For `COc1ccc(OC)c(S(=O)(=O)N2CC(N(C3CCOCC3)S(C)(=O)=O)C2)c1`, the activity change, negative = inhibition in test [1] is -0.947%; in test [2] it was -5.65%; in test [3], 2.59%; in test [4], -8.9%; in test [5], 11.5%.
As for `O=C(c1ccc2c(=O)nc3c(-c4cccc(F)c4)n[nH]n3c2c1)N1CCN(c2ccccc2F)CC1`, the activity change, negative = inhibition in test [1] is 2.13%; in test [2] it was 6.48%; in test [3], 1.57%; in test [4], 2.9%; in test [5], -0.443%.

The values are drawn from PubChem BioAssay AID1745853 (National Center for Advancing Translational Sciences (NCATS), 2022).
